# Measured values from the supplement of paper PMC4967469.
# The IC50 comes from the fitted curve, where viability falls to half of the control; fits outside the tested doses are given as limits. AUC, from the same fit, is the share of area under the viability curve across the 256-fold dose range; the more sensitive the line, the further below 1. An inferred top dose is not printed in the source and was worked back from the curve model. For part of these data: Where an entry number is given, a second screen of the drug exists; the two often differ.
# Compound: Cc1ccc(-n2nc(C(C)(C)C)cc2NC(=O)Nc2ccc(OCCN3CCOCC3)c3ccccc23)cc1 [BIRB 0796]
# Experiment: Viability of human cancer cell lines after 72 h of drug (GDSC screen)
# Settings: top dose 10 µM; top dose inferred
# Protocol: (§1)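 Human cancer cell lines in 384-well plates, medium with 10% serum, drug for 72 h over a 256-fold dose range (nine 2-fold or five 4-fold steps up to the top dose). Adherent lines were fixed and stained with the nucleic acid dye Syto60, suspension lines read with resazurin; signal relative to control wells, capped at 0 and 100%. One two-parameter sigmoid per drug and line, fitted in a mixed model over all curves with the slope shared within a line.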
Cell Line,AUC,IC50
"SW620 (large intestine, adherent)",0.988,> 10 µM
"SW948 (large intestine, adherent)",0.973,> 10 µM
"SW1573 (lung adenocarcinoma, adherent)",0.949,> 10 µM
"SW1710 (bladder, adherent)",0.958,> 10 µM
"SW1783 (glioma, adherent)",0.988,> 10 µM
"T84 (large intestine, adherent)",0.989,> 10 µM
"TMK-1 (stomach, adherent)",0.972,> 10 µM
"TT (thyroid, adherent)",0.841,> 10 µM
"UACC-62 (melanoma, adherent)",0.967,> 10 µM
"UACC-893 (breast, adherent)",0.95,> 10 µM
"VMRC-RCZ (kidney, adherent)",0.981,> 10 µM
"WM35 (melanoma, adherent)",0.963,> 10 µM
"WM1552C (melanoma, adherent)",0.978,> 10 µM
"WM-115 (melanoma, adherent)",0.982,> 10 µM
"huH-1 (liver, adherent)",0.928,> 10 µM

# Compound: O=C(c1cc(Cc2n[nH]c(=O)c3ccccc23)ccc1F)N1CCN(C(=O)C2CC2)CC1 [Olaparib]
# Experiment: as above
# Settings: top dose 5 µM; screen: GDSC drug entry 1017; top dose inferred
# Protocol: as §1
Cell Line,AUC,IC50
"RERF-LC-MS (lung adenocarcinoma, adherent)",0.967,> 5 µM
"RERF-LC-Sq1 (lung squamous cell carcinoma, adherent)",0.973,> 5 µM
"RO82-W-1 (thyroid, adherent)",0.975,> 5 µM
"RT4 (bladder, adherent)",0.987,> 5 µM
"RVH-421 (melanoma, adherent)",0.978,> 5 µM
"SJRH30 (rhabdomyosarcoma, adherent)",0.978,> 5 µM
"SK-MEL-3 (melanoma, adherent)",0.982,> 5 µM
"SK-MEL-30 (melanoma, adherent)",0.986,> 5 µM
"SK-MES-1 (lung squamous cell carcinoma, adherent)",0.985,> 5 µM
"SK-N-AS (neuroblastoma, adherent)",0.969,> 5 µM
"SK-N-SH (neuroblastoma, adherent)",0.956,> 5 µM
"SNG-M (endometrium, adherent)",0.923,> 5 µM
"SNU-387 (liver, adherent)",0.983,> 5 µM
"SU8686 (pancreas, adherent)",0.955,> 5 µM
"SW48 (large intestine, adherent)",0.984,> 5 µM
"SW620 (large intestine, adherent)",0.981,> 5 µM
"SW948 (large intestine, adherent)",0.981,> 5 µM
"SW1573 (lung adenocarcinoma, adherent)",0.957,> 5 µM
"SW1710 (bladder, adherent)",0.986,> 5 µM
"SW1783 (glioma, adherent)",0.988,> 5 µM
"T84 (large intestine, adherent)",0.989,> 5 µM
"TMK-1 (stomach, adherent)",0.985,> 5 µM
"TT (thyroid, adherent)",0.975,> 5 µM
"UACC-62 (melanoma, adherent)",0.98,> 5 µM
"UACC-893 (breast, adherent)",0.98,> 5 µM
"VMRC-RCZ (kidney, adherent)",0.981,> 5 µM
"WM35 (melanoma, adherent)",0.933,> 5 µM
"WM1552C (melanoma, adherent)",0.988,> 5 µM
"WM-115 (melanoma, adherent)",0.955,> 5 µM
"huH-1 (liver, adherent)",0.967,> 5 µM

# Same assay, conditions: top dose 10 µM; screen: GDSC drug entry 1495
Cell Line,AUC,IC50
"RERF-LC-MS (lung adenocarcinoma, adherent)",0.825,6.25 µM
"RERF-LC-Sq1 (lung squamous cell carcinoma, adherent)",0.971,> 10 µM
"RO82-W-1 (thyroid, adherent)",0.953,> 10 µM
"RT4 (bladder, adherent)",0.972,> 10 µM
"RVH-421 (melanoma, adherent)",0.975,> 10 µM
"SJRH30 (rhabdomyosarcoma, adherent)",0.973,> 10 µM
"SK-MEL-3 (melanoma, adherent)",0.982,> 10 µM
"SK-MEL-30 (melanoma, adherent)",0.972,> 10 µM
"SK-MES-1 (lung squamous cell carcinoma, adherent)",0.952,> 10 µM
"SK-N-AS (neuroblastoma, adherent)",0.971,> 10 µM
"SK-N-SH (neuroblastoma, adherent)",0.972,> 10 µM
"SNG-M (endometrium, adherent)",0.831,6.17 µM
"SNU-387 (liver, adherent)",0.96,> 10 µM
"SU8686 (pancreas, adherent)",0.984,> 10 µM
"SW48 (large intestine, adherent)",0.963,> 10 µM
"SW620 (large intestine, adherent)",0.929,> 10 µM
"SW948 (large intestine, adherent)",0.917,> 10 µM
"SW1573 (lung adenocarcinoma, adherent)",0.929,> 10 µM
"SW1710 (bladder, adherent)",0.958,> 10 µM
"SW1783 (glioma, adherent)",0.959,> 10 µM
"T84 (large intestine, adherent)",0.966,> 10 µM
"TMK-1 (stomach, adherent)",0.938,> 10 µM
"TT (thyroid, adherent)",0.954,> 10 µM
"UACC-62 (melanoma, adherent)",0.953,> 10 µM
"UACC-893 (breast, adherent)",0.857,> 10 µM
"VMRC-RCZ (kidney, adherent)",0.972,> 10 µM
"WM35 (melanoma, adherent)",0.949,> 10 µM
"WM1552C (melanoma, adherent)",0.977,> 10 µM
"WM-115 (melanoma, adherent)",0.966,> 10 µM
"huH-1 (liver, adherent)",0.939,> 10 µM

# Compound: CNC(=O)c1ccc(Nc2cc(Nc3ccccc3S(=O)(=O)C(C)C)c3cc[nH]c3n2)nc1 [HG-5-113-01]
# Experiment: as above
# Settings: top dose 10 µM; top dose inferred
# Protocol: as §1
Cell Line,AUC,IC50
"RERF-LC-MS (lung adenocarcinoma, adherent)",0.842,7.33 µM
"RERF-LC-Sq1 (lung squamous cell carcinoma, adherent)",0.781,6.4 µM
"RO82-W-1 (thyroid, adherent)",0.847,> 10 µM
"RT4 (bladder, adherent)",0.852,8.34 µM
"RVH-421 (melanoma, adherent)",0.836,> 10 µM
"SJRH30 (rhabdomyosarcoma, adherent)",0.729,2.88 µM
"SK-MEL-3 (melanoma, adherent)",0.873,> 10 µM
"SK-MEL-30 (melanoma, adherent)",0.896,> 10 µM
"SK-MES-1 (lung squamous cell carcinoma, adherent)",0.919,> 10 µM
"SK-N-AS (neuroblastoma, adherent)",0.722,2.98 µM
"SK-N-SH (neuroblastoma, adherent)",0.732,2.84 µM
"SNG-M (endometrium, adherent)",0.63,1.41 µM
"SNU-387 (liver, adherent)",0.775,4.52 µM
"SU8686 (pancreas, adherent)",0.885,> 10 µM
"SW48 (large intestine, adherent)",0.497,0.615 µM
"SW620 (large intestine, adherent)",0.686,1.93 µM
"SW948 (large intestine, adherent)",0.796,7.43 µM
"SW1573 (lung adenocarcinoma, adherent)",0.733,3.71 µM
"SW1710 (bladder, adherent)",0.749,3.32 µM
"SW1783 (glioma, adherent)",0.857,6.87 µM
"T84 (large intestine, adherent)",0.821,5.94 µM
"TMK-1 (stomach, adherent)",0.748,3.4 µM
"TT (thyroid, adherent)",0.832,> 10 µM
"UACC-62 (melanoma, adherent)",0.814,5.39 µM
"UACC-893 (breast, adherent)",0.952,> 10 µM
"VMRC-RCZ (kidney, adherent)",0.821,7.06 µM
"WM35 (melanoma, adherent)",0.824,6.01 µM
"WM1552C (melanoma, adherent)",0.815,5.52 µM
"WM-115 (melanoma, adherent)",0.907,> 10 µM
"huH-1 (liver, adherent)",0.836,8.98 µM

# Compound: Cc1cccc(-c2[nH]c(C(C)(C)C)nc2-c2ccc3nccnc3c2)n1 [SB-525334]
# Experiment: as above
# Settings: top dose 20 µM; top dose inferred
# Protocol: as §1
Cell Line,AUC,IC50
"RERF-LC-MS (lung adenocarcinoma, adherent)",0.838,14.1 µM
"RERF-LC-Sq1 (lung squamous cell carcinoma, adherent)",0.947,> 20 µM
"RO82-W-1 (thyroid, adherent)",0.974,> 20 µM
"RT4 (bladder, adherent)",0.939,> 20 µM
"RVH-421 (melanoma, adherent)",0.798,13.8 µM
"SJRH30 (rhabdomyosarcoma, adherent)",0.985,> 20 µM
"SK-MEL-3 (melanoma, adherent)",0.373,0.526 µM
"SK-MEL-30 (melanoma, adherent)",0.907,> 20 µM
"SK-MES-1 (lung squamous cell carcinoma, adherent)",0.959,> 20 µM
"SK-N-AS (neuroblastoma, adherent)",0.958,> 20 µM
"SK-N-SH (neuroblastoma, adherent)",0.891,> 20 µM
"SNG-M (endometrium, adherent)",0.963,> 20 µM
"SNU-387 (liver, adherent)",0.98,> 20 µM
"SU8686 (pancreas, adherent)",0.979,> 20 µM
"SW48 (large intestine, adherent)",0.973,> 20 µM
"SW620 (large intestine, adherent)",0.98,> 20 µM
"SW948 (large intestine, adherent)",0.941,> 20 µM
"SW1573 (lung adenocarcinoma, adherent)",0.968,> 20 µM
"SW1710 (bladder, adherent)",0.949,> 20 µM
"SW1783 (glioma, adherent)",0.983,> 20 µM
"T84 (large intestine, adherent)",0.96,> 20 µM
"TMK-1 (stomach, adherent)",0.968,> 20 µM
"TT (thyroid, adherent)",0.976,> 20 µM
"UACC-62 (melanoma, adherent)",0.953,> 20 µM
"UACC-893 (breast, adherent)",0.931,> 20 µM
"VMRC-RCZ (kidney, adherent)",0.977,> 20 µM
"WM35 (melanoma, adherent)",0.71,4.91 µM
"WM1552C (melanoma, adherent)",0.983,> 20 µM
"WM-115 (melanoma, adherent)",0.754,8.15 µM
"huH-1 (liver, adherent)",0.984,> 20 µM
